In all, about 18,000 sequences were measured (“TetR repression strength (sort-seq, GFP reporter)”: median about 0.23, highest 2% from about 0.68 on). This is one part of the list.

The assay concerns the target TetR (class B, Tn10) (UniProt P04483). As to the kind of experiment: TetR repression strength (sort-seq, GFP reporter) (relative to tetO2 = 1); higher = stronger repression. To be noted: E. coli. In a few lines: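 E. coli SIG10-MAX carried a low-copy plasmid library with eight randomized operator positions between a constitutive promoter and sfGFP, with TetR constitutively expressed. Cells grew 5 h at 37 °C in LB with 50 µg/mL chloramphenicol, then 10^6 cells were FACS-sorted into 13 fluorescence bins, each Illumina-sequenced. Repression strength is the top bin index plus one minus the read-weighted mean bin, divided by the wild-type operator value. Three independent transformations; variants with ≥30 reads in all replicates and CV ≤0.5 were averaged.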
UniProt P04483, sequence (P04483 whole entry): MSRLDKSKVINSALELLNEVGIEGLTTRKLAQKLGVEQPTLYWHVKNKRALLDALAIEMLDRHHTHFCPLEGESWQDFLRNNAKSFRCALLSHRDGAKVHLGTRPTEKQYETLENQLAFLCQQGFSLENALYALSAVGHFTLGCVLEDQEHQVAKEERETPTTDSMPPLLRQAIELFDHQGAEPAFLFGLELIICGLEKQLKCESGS
In turn, TCCCGTTGAGTTGCTGAGA showed a TetR repression strength of 0.157.
For TCCCTCTGAGTTGTCGAGA the value was 0.461; for TCCCGAGGAGTAGGAGAGA, 0.14; for TCCCGGCAAGTATTTGAGA, 0.355.
The sequence TCCCGCCGAGTAGTCGAGA registered a TetR repression strength of 0.18.
Then TCCCCACAAGTTTGTGAGA, with 0.143.
For TCCCGAAGAGTAGTCGAGA, the TetR repression strength was found to be 0.321.
Then TCCCCGCAAGTGGAGGAGA, with 0.15; and TCCCCAGGAGTATGTGAGA, with 0.378; and TCCCAGCGAGTAGGCGAGA, with 0.
Turning to TCCCAAGAAGTGTAAGAGA, the TetR repression strength worked out at 0.181.
Then TCCCGAAGAGTTGGAGAGA, with 0.575; and TCCCGTGGAGTTATCGAGA, with 0.213; and TCCCTGAGAGTTGAGGAGA, with 0.54.
For TCCCAGGCAGTGGTGGAGA the value was 0.161; for TCCCTTTCAGTTGGAGAGA, 0.245; for TCCCCCGAAGTGCCTGAGA, 0.407.
Then TCCCAAATAGTAGGAGAGA, with 0.236; and TCCCCCTCAGTTTAAGAGA, with 0.296.
In turn, TCCCATCGAGTGTATGAGA had a TetR repression strength of 0.219.
TCCCGTGTAGTTGCTGAGA came in with a TetR repression strength of 0.132.
For TCCCTTGTAGTTCACGAGA the value was 0.309; for TCCCGTACAGTTTTAGAGA, 0.269.
Then TCCCTTAAAGTACTAGAGA, with 0.
In the case of TCCCGCGTAGTGCTTGAGA, the TetR repression strength came to 0.177.
For TCCCGCGTAGTACATGAGA the value was 0.246.
Then TCCCGTACAGTGTACGAGA, with 0.0921.
In the case of TCCCGCACAGTGTTTGAGA, the TetR repression strength came out at 0.322.
Then TCCCCCGGAGTGCGTGAGA, with 0.145; and TCCCAGGAAGTATCGGAGA, with 0.147; and TCCCAGTCAGTTCCAGAGA, with 0.133.
For TCCCCTCCAGTCCTAGAGA the value was 0.386.
For TCCCCATAAGTACCGGAGA the value was 0.034; for TCCCAGGCAGTTACCGAGA, 0.14.
For TCCCTGCAAGTTCGAGAGA, the TetR repression strength came out at 0.282.
Take TCCCATTGAGTGGTAGAGA: the TetR repression strength came to 0.466.
For TCCCAACGAGTCGACGAGA, the TetR repression strength turned out to be 0.696.
In turn, TCCCTTCGAGTCGATGAGA displayed a TetR repression strength of 0.299.
For TCCCGCATAGTCGAGGAGA the value was 0.274; for TCCCAGTGAGTGGGCGAGA, 0.145.
TCCCCCGGAGTGAAAGAGA showed a TetR repression strength of 0.501.
In turn, TCCCGAGTAGTTGGGGAGA came in with a TetR repression strength of 0.166.
TCCCGCCGAGTGCTCGAGA came in with a TetR repression strength of 0.0648.
For TCCCACATAGTGACCGAGA the value was 0.223; for TCCCCGGGAGTTCGCGAGA, 0.184; for TCCCCGATAGTCTGAGAGA, 0.187.
In turn, TCCCTGACAGTCGTTGAGA yielded a TetR repression strength of 0.115.
Sequence TCCCCTTAAGTGTCGGAGA gave a TetR repression strength of 0.126.
Regarding TCCCGTTTAGTGATAGAGA, the TetR repression strength stood at 0.523.
TCCCCCTTAGTGGACGAGA displayed a TetR repression strength of 0.353.
Then TCCCAACAAGTCAGGGAGA, with 0.351; and TCCCTGTGAGTTGTCGAGA, with 0.258.
Regarding TCCCTCGCAGTCACGGAGA, the TetR repression strength was 0.0292.
As to TCCCCGTAAGTGGATGAGA, the TetR repression strength was found to be 0.0225.
Sequence TCCCATCAAGTTCGGGAGA came in with a TetR repression strength of 0.282.
The sequence TCCCATAAAGTGGCGGAGA gave a TetR repression strength of 0.133.
For TCCCTTATAGTGGTCGAGA the value was 0.22; for TCCCTGAAAGTCTCGGAGA, 0.0239; for TCCCTGGTAGTTCTCGAGA, 0.315.
For TCCCTCGCAGTACGTGAGA, the TetR repression strength amounted to 0.126.
TCCCTTGTAGTTGACGAGA showed a TetR repression strength of 0.0842.
For TCCCTACCAGTTGCTGAGA the value was 0.309; for TCCCTGTTAGTTCTGGAGA, 0.166; for TCCCTGGAAGTTTTGGAGA, 0.139.
As for TCCCCATAAGTCCTTGAGA, the TetR repression strength was 0.415.
Then TCCCGCGGAGTCCAAGAGA, with 0.101; and TCCCAGGTAGTGGACGAGA, with 0.46.
For TCCCTGAGAGTCGGTGAGA the value was 0.3; for TCCCGTTGAGTAGCAGAGA, 0.367; for TCCCACTTAGTGATAGAGA, 0.569.
Sequence TCCCTTAAAGTAACTGAGA gave a TetR repression strength of 0.217.
As to TCCCTTGGAGTGGGAGAGA, the TetR repression strength is 0.158.
Then TCCCCTGAAGTGGCAGAGA, with 0.204; and TCCCATAAAGTTGCGGAGA, with 0.142.
As for TCCCTACCAGTTCCTGAGA, the TetR repression strength turned out to be 0.29.
In turn, TCCCTGGGAGTGGAGGAGA showed a TetR repression strength of 0.227.
In turn, TCCCGATCAGTGGTGGAGA had a TetR repression strength of 0.426.
In the case of TCCCGGTCAGTCTCCGAGA, the TetR repression strength stood at 0.281.
TCCCGGCGAGTGATGGAGA had a TetR repression strength of 0.29.
As for TCCCAGCGAGTGACGGAGA, the TetR repression strength came to 0.207.
Sequence TCCCCGACAGTTAGAGAGA had a TetR repression strength of 0.458.
Sequence TCCCTTGAAGTGGGTGAGA had a TetR repression strength of 0.165.
TCCCTGTGAGTCGCGGAGA: the TetR repression strength amounted to 0.327.
Then TCCCGCACAGTAGGTGAGA, with 0.298; and TCCCGGCGAGTGGGTGAGA, with 0.23; and TCCCTGTAAGTGATCGAGA, with 0.379.
Then TCCCAAGCAGTGTGCGAGA, with 0.113; and TCCCCAGTAGTGGTGGAGA, with 0.198; and TCCCGAACAGTTGTGGAGA, with 0.231.
In turn, TCCCTCACAGTTTAGGAGA came in with a TetR repression strength of 0.271.
For the sequence TCCCGTGAAGTATCGGAGA, the TetR repression strength came to 0.0691.
TCCCGCGTAGTTAAAGAGA had a TetR repression strength of 0.327.
For TCCCAAACAGTATGTGAGA the value was 0.164.
Then TCCCTAGGAGTGGGTGAGA, with 0.195.
Then TCCCTAGGAGTGGAGGAGA, with 0.144; and TCCCCCCGAGTGAGGGAGA, with 0.13.
Consider TCCCAAGTAGTGATAGAGA, for which the TetR repression strength amounted to 0.434.
For TCCCATATAGTGAACGAGA the value was 0.332; for TCCCAAGCAGTGAATGAGA, 0.218; for TCCCGAGCAGTCAGAGAGA, 0.36.
As for TCCCGGGGAGTACGGGAGA, the TetR repression strength is 0.233.
As for TCCCGGTGAGTCGATGAGA, the TetR repression strength was found to be 0.185.

Source of the values: a collection of fitness landscapes (doi:10.1038/s41467-024-54723-y).
